In paper PMC1141268:
No constants are given. Whether binding was seen depends on the method and setting. In cells and extracts the contact can be indirect. Some entries that bind do so weakly or less than the wild type. Tags and fused reporters may be left off the sequences shown. Values belong to the molecule of their own block, whether it stands above or below them.

The chains behind the UniProt entries cited, without tags or fusion partners.
UniProt Q32KD4: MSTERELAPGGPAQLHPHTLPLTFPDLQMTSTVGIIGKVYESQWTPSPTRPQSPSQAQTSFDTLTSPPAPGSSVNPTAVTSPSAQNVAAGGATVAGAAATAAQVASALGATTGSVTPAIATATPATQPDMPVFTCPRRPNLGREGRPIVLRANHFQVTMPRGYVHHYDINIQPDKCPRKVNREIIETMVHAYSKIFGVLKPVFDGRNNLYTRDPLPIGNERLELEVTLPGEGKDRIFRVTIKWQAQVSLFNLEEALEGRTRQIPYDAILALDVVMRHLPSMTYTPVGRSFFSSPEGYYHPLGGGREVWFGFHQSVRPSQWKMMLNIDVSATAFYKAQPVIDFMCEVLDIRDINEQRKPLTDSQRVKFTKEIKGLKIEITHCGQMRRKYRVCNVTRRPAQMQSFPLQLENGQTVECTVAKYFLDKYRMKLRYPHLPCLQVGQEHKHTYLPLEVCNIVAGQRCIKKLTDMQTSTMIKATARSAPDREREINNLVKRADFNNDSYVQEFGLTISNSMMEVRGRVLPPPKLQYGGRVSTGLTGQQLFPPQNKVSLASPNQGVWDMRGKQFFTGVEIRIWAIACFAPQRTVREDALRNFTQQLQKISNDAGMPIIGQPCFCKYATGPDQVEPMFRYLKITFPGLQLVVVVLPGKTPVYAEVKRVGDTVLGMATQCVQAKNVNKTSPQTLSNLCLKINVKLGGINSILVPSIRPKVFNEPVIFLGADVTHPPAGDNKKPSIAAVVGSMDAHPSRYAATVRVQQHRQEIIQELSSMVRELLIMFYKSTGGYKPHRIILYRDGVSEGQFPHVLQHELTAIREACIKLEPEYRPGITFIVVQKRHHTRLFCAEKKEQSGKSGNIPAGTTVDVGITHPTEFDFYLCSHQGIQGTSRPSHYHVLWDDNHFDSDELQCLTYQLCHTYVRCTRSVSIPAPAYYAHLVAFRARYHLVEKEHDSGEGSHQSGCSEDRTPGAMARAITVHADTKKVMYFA
UniProt Q9VCU9: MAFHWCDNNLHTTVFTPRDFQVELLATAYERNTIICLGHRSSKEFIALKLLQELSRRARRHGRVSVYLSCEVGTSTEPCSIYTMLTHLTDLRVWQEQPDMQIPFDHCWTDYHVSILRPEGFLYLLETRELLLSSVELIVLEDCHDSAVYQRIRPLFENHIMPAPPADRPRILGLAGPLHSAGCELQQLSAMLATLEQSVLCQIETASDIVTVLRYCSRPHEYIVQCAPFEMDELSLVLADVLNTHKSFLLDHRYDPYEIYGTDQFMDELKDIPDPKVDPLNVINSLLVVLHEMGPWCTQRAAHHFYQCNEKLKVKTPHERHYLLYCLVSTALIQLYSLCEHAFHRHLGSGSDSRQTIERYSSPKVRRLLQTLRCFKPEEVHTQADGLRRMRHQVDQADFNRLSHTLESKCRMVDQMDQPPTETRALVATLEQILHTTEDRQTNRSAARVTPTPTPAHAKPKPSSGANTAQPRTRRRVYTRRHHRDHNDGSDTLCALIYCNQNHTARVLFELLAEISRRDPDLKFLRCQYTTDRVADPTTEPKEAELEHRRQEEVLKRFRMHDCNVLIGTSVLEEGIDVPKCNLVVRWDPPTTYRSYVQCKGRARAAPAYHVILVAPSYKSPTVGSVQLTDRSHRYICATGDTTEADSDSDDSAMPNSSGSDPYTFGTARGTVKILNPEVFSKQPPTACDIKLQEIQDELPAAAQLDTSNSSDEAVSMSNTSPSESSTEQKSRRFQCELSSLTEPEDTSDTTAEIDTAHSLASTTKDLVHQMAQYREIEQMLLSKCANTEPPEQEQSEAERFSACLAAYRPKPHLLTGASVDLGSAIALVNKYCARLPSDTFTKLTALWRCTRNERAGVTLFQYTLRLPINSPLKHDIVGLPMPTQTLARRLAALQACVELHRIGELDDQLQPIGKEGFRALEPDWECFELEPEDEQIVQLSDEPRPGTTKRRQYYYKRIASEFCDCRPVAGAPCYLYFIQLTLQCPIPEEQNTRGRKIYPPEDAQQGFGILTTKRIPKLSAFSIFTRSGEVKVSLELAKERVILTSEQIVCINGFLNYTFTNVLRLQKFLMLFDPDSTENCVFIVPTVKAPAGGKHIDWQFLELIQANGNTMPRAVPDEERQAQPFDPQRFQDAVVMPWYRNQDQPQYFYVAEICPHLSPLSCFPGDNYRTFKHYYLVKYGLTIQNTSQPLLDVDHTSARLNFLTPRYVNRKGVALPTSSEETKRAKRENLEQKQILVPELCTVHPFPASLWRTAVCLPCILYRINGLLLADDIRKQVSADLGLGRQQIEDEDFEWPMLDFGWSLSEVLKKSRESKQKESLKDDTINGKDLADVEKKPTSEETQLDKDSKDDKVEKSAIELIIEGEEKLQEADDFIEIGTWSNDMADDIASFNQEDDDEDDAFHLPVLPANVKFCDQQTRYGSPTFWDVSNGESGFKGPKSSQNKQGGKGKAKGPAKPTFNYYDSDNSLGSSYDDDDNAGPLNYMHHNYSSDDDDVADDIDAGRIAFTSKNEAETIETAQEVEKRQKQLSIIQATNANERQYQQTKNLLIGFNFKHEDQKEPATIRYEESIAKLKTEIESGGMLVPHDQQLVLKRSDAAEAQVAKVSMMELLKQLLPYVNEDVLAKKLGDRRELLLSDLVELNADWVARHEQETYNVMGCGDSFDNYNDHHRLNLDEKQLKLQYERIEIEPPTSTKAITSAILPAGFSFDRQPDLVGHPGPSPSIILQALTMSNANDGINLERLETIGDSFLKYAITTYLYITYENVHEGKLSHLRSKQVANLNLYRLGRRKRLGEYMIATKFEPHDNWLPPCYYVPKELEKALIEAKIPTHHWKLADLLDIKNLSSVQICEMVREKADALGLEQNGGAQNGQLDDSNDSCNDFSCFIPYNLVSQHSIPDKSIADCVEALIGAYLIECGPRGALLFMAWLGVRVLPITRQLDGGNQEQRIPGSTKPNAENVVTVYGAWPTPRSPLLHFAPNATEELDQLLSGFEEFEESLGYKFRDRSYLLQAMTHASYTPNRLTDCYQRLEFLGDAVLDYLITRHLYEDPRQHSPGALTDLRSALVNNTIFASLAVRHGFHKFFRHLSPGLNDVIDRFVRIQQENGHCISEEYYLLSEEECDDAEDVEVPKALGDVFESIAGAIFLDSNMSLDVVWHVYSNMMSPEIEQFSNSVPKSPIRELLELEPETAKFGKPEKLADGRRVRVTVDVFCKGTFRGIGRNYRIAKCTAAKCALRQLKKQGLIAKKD

Tests used:
[1] = target: T1, Flag-tagged Loquacious (Drosophila) (UniProt Q9VJY9); experiment: co-IP; Flag-Loqs complex immunopurified from S2 cells with anti-Flag; Dicer-1 found by immunoblotting; data not shown
T1 sequence: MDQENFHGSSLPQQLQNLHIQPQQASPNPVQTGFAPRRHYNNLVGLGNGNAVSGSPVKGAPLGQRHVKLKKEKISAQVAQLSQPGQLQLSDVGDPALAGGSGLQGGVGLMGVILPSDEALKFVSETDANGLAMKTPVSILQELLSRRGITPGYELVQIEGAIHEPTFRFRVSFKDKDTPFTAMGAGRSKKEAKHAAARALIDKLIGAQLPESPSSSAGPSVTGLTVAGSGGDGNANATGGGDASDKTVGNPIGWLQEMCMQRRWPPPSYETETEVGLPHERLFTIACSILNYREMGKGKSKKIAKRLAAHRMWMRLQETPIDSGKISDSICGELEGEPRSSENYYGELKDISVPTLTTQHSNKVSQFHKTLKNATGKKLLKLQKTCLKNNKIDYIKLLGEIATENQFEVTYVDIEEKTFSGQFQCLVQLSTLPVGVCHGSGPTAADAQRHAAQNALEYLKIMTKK

[2] = target: AGO1 tagged with TAP (Drosophila) (UniProt Q32KD4); experiment: co-IP; TAP-tagged Argonaute protein and associated material from S2 cytoplasmic lysate (Buffer A, 150 mM KOAc) bound to IgG Sepharose, eluted with SDS sample buffer; Western blot with anti-Dicer-1, anti-AGO1, anti-Flag
[3] = target: T2, AGO2 tagged with TAP (Drosophila) (UniProt Q9VUQ5); experiment: as above
T2 sequence: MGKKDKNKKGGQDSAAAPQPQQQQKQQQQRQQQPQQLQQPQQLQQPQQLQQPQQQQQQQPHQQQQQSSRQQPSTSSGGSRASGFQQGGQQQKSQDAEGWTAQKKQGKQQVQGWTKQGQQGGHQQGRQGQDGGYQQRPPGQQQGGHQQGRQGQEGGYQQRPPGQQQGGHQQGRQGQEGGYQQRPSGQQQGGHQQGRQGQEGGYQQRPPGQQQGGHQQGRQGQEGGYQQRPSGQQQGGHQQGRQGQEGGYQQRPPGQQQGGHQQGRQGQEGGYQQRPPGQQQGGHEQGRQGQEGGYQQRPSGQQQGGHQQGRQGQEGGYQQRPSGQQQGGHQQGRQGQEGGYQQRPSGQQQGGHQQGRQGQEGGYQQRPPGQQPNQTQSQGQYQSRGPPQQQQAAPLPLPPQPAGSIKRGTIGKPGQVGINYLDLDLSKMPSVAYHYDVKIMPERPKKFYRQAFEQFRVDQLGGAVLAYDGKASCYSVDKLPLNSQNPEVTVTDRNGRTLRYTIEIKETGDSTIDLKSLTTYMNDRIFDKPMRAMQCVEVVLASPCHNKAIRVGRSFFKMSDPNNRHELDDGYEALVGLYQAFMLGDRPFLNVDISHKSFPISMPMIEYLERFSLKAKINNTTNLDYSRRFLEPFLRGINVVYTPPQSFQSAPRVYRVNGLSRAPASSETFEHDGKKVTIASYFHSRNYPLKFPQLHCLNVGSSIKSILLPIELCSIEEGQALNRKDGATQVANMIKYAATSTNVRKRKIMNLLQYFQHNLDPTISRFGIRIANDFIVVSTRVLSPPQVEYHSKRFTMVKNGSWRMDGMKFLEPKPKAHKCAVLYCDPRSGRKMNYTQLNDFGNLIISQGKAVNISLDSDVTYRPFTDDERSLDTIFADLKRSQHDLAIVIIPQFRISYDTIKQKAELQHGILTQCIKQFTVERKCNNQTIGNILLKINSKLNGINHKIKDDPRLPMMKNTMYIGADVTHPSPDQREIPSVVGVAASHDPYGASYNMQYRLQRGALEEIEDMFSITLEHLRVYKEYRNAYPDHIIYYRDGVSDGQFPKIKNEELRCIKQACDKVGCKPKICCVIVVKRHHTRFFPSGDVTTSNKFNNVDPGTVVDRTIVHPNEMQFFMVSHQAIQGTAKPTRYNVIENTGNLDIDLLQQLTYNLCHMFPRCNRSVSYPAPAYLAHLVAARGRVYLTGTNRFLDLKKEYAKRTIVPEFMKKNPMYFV

[4] = target: T3, recombinant Loqs fused to glutathione S-transferase (Drosophila) (UniProt Q9VJY9); experiment: pull-down; GST-Loqs or GST bound to glutathione Sepharose 4B; 35S-labeled in vitro translated Dicer-1, treated with RNase A; Buffer A with 0.1% NP-40; extensive washing; SDS-PAGE and autoradiography; only the target purified
T3 sequence: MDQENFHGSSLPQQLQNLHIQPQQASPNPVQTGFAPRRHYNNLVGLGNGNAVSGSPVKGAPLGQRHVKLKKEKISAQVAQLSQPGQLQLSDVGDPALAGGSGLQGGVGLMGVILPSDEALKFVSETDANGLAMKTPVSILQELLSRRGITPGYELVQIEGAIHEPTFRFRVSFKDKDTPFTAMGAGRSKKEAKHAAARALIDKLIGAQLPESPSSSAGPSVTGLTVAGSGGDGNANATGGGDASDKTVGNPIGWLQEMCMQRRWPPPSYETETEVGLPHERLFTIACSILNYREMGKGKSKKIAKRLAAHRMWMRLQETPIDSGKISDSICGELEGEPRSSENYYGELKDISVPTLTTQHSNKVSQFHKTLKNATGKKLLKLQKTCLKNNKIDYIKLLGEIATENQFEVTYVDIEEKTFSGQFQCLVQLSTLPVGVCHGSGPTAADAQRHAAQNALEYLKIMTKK

[5] = target: T4, full-length myc-tagged Loquacious (Drosophila) (UniProt Q9VJY9); experiment: co-IP; S2 cells expressing both myc-Loqs and Flag-Dicer-1; whole cell extract in Buffer A (30 mM HEPES pH 7.4, 150 mM KOAc, 2 mM MgOAc, 5 mM DTT) with 0.1% NP-40; immunoprecipitation with anti-Flag M2 agarose (4 °C, 1 h) or with anti-myc antibody; Western blot
T4 sequence: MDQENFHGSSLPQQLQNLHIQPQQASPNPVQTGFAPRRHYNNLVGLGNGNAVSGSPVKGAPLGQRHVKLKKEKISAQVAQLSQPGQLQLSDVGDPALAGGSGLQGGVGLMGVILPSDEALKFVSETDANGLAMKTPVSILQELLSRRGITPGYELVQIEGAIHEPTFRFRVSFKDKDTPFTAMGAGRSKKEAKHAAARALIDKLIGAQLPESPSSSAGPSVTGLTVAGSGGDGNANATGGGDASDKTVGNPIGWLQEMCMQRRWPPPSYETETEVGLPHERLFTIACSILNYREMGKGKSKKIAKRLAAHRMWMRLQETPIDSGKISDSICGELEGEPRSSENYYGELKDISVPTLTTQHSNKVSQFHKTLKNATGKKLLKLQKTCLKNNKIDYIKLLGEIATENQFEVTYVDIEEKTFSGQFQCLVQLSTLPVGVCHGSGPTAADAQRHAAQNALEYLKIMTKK

[6] = target: Flag-tagged Dicer-1 (Drosophila) (UniProt Q9VCU9); experiment: as above
[7] = target: Flag-tagged Dicer-1 (Drosophila) (UniProt Q9VCU9); experiment: co-IP; Flag-Dicer-1 complex purified from S2 extract with anti-Flag under a harsh, high-salt condition (800 mM KOAc); Western blot with anti-myc or anti-Dicer-2

binding [1]: binds
binding [2]: binds
binding [3]: no binding
Molecule: Dicer-1 (endogenous) (from UniProt Q9VCU9 1-2249) (enzyme)

binding [4]: binds
Molecule: 35S-labeled Dicer-1 (from UniProt Q9VCU9 1-2249) (enzyme)

binding [5]: binds
Molecule: Flag-tagged Dicer-1 (from UniProt Q9VCU9 1-2249) (enzyme)

binding [6]: binds
binding [7]: binds weakly
B1: full-length myc-tagged Loquacious (protein, UniProt Q9VJY9-1 1-465)
chain: MDQENFHGSSLPQQLQNLHIQPQQASPNPVQTGFAPRRHYNNLVGLGNGNAVSGSPVKGAPLGQRHVKLKKEKISAQVAQLSQPGQLQLSDVGDPALAGGSGLQGGVGLMGVILPSDEALKFVSETDANGLAMKTPVSILQELLSRRGITPGYELVQIEGAIHEPTFRFRVSFKDKDTPFTAMGAGRSKKEAKHAAARALIDKLIGAQLPESPSSSAGPSVTGLTVAGSGGDGNANATGGGDASDKTVGNPIGWLQEMCMQRRWPPPSYETETEVGLPHERLFTIACSILNYREMGKGKSKKIAKRLAAHRMWMRLQETPIDSGKISDSICGELEGEPRSSENYYGELKDISVPTLTTQHSNKVSQFHKTLKNATGKKLLKLQKTCLKNNKIDYIKLLGEIATENQFEVTYVDIEEKTFSGQFQCLVQLSTLPVGVCHGSGPTAADAQRHAAQNALEYLKIMTKK

binding [2]: binds
B2: Flag-tagged Loquacious (protein, UniProt Q9VJY9-1 1-465)
chain: MDQENFHGSSLPQQLQNLHIQPQQASPNPVQTGFAPRRHYNNLVGLGNGNAVSGSPVKGAPLGQRHVKLKKEKISAQVAQLSQPGQLQLSDVGDPALAGGSGLQGGVGLMGVILPSDEALKFVSETDANGLAMKTPVSILQELLSRRGITPGYELVQIEGAIHEPTFRFRVSFKDKDTPFTAMGAGRSKKEAKHAAARALIDKLIGAQLPESPSSSAGPSVTGLTVAGSGGDGNANATGGGDASDKTVGNPIGWLQEMCMQRRWPPPSYETETEVGLPHERLFTIACSILNYREMGKGKSKKIAKRLAAHRMWMRLQETPIDSGKISDSICGELEGEPRSSENYYGELKDISVPTLTTQHSNKVSQFHKTLKNATGKKLLKLQKTCLKNNKIDYIKLLGEIATENQFEVTYVDIEEKTFSGQFQCLVQLSTLPVGVCHGSGPTAADAQRHAAQNALEYLKIMTKK
